The supplement of paper PMC12217912
This is one part of the list. The full chains were built here from the parent and the listed change. Values near 0.05 are background.

B1: TEV protease; numbered along this chain (parent)
chain: MGESLFKGPRDYNPISSSICHLTNESDGHTTSLYGIGFGPFIITNKHLFRRNNGTLVVQSLHGVFKVKDTTTLQQHLVDGRDMIIIRMPKDFPPFPQKLKFREPQREERICLVTTNFQTKSMSSMVSDTSCTFPSGDGIFWKHWIQTKDGQCGSPLVSTRDGFIVGIHSASNFTNTNNYFTSVPKNFMELLTNQEAQQWVSGWRLNADSVLWGGHKVFMVKPEEPFQPVKEATQL

Variants of: B1
Test: raw area under fraction-flipped curve 0-4 h after induction (AUC4h, not background-subtracted), DNA-recorder readout of cleavage of the substrate (dimensionless); higher = more cleavage of the substrate by the protease variant
Settings: temperature: 34 °C; time window: 0-4 h after rhamnose induction
Method: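 In vivo DNA recorder in E. coli TOP10(DE3) ΔrhaA at 34 °C. Each TEVp single-site mutant (parent TEVp 0) is paired with a single-site variant of the 7-mer TEVs (canonical ENLYFQ|S). The substrate sits between flexible linkers in a Bxb1-sfGFP-TEVs-SsrA fusion, so cleavage stabilises Bxb1 and speeds flipping of a recombination array, read by NGS. The value is the raw area under the fraction-flipped curve over 0-4 h after rhamnose induction (AUC4h), with ≥20 reads per time point. It is not background-subtracted; inactive controls average about 0.047.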
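Note: Bxb1 expression induced with 0.2% (w/v) L-rhamnose at OD600 near 0.5, cultures sampled hourly, flipped fraction per protease–substrate barcode pair counted by paired-end Illumina sequencing.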

Row | Variant | area with substrate ENAYFQS | area with substrate ENCYFQS | area with substrate ENDYFQS | area with substrate ENGYFQS | area with substrate ENHYFQS | area with substrate ENIYFQS | area with substrate ENKYFQS | area with substrate ENMYFQS | area with substrate ENNYFQS | area with substrate ENPYFQS | area with substrate ENQYFQS | area with substrate ENRYFQS | area with substrate ENSYFQS | area with substrate ENTYFQS | area with substrate ENVYFQS | area with substrate ENFYFQS | area with substrate ENYYFQS | area with substrate ENEYFQS | area with substrate ENWYFQS
1 | E195R | 0.061 | 0.0641 | 0.0702 | 0.052 | 0.0412 | 0.106 | 0.0505 | 0.0725 | 0.0567 | 0.0567 | 0.084 | 0.0652 | 0.0658 | 0.0688 | 0.0696 |  |  |  | 
2 | E195A | 0.0554 |  | 0.0714 |  | 0.0772 | 0.145 | 0.0571 | 0.0617 |  |  | 0.0494 | 0.0666 | 0.0553 | 0.0681 |  | 0.0617 | 0.0414 |  | 
3 | W203V | 0.0563 | 0.0537 | 0.063 | 0.0746 | 0.0554 | 0.0683 | 0.0588 | 0.054 | 0.0647 | 0.0562 | 0.0609 | 0.0653 | 0.0517 | 0.0597 | 0.0545 | 0.0617 | 0.0592 | 0.0548 | 
4 | R204V | 0.0685 | 0.0617 | 0.06 | 0.0637 | 0.0755 |  | 0.0625 | 0.085 | 0.0595 |  | 0.0596 | 0.0589 | 0.0635 | 0.0673 | 0.084 |  |  | 0.0642 | 0.0597
5 | R204G | 0.0622 | 0.0617 | 0.0675 | 0.0696 | 0.0526 |  |  | 0.0574 | 0.0651 | 0.062 | 0.0624 | 0.0623 | 0.0474 |  | 0.0699 | 0.0699 | 0.0732 | 0.0555 | 0.0658
6 | R204M | 0.0535 | 0.0651 | 0.0665 | 0.064 | 0.0587 | 0.105 |  | 0.0925 | 0.0627 | 0.0545 | 0.0557 | 0.0532 | 0.0617 | 0.0637 | 0.0821 | 0.046 |  | 0.0597 | 0.0549
7 | V183P | 0.0552 | 0.0735 | 0.0474 | 0.0596 | 0.0566 |  | 0.053 | 0.0666 | 0.0624 |  | 0.0571 |  | 0.0516 |  | 0.017 | 0.0436 | 0.0573 | 0.0585 | 0.0718
8 | V183A | 0.0603 |  | 0.0588 | 0.0695 | 0.0598 | 0.123 |  |  | 0.0481 | 0.0517 | 0.0662 | 0.0508 | 0.0576 | 0.0519 | 0.081 |  | 0.0603 |  | 0.0377
9 | T181F | 0.0574 | 0.0505 | 0.05 |  | 0.0664 |  |  | 0.0596 | 0.0575 |  | 0.0732 | 0.0113 | 0.027 |  | 0.0534 | 0.0538 |  | 0.0644 | 
10 | S182R | 0.0562 | 0.0526 | 0.0699 |  |  |  | 0.0513 | 0.0528 |  |  | 0.0552 | 0.0629 | 0.0582 | 0.0557 |  | 0.0307 | 0.0791 | 0.0552 | 
11 | L191P | 0.0498 | 0.0561 | 0.0551 |  |  | 0.0551 | 0.0576 |  |  | 0.0574 | 0.0702 |  | 0.0551 |  | 0.0468 | 0.0775 |  |  | 
12 | M188S | 0.0603 | 0.0689 | 0.0445 |  | 0.0605 | 0.0796 | 0.0483 |  |  | 0.0605 | 0.0444 |  | 0.0582 | 0.0733 | 0.0688 | 0.0531 | 0.0588 | 0.038 | 
13 | M188N | 0.0488 |  | 0.0543 |  |  |  | 0.07 | 0.0534 |  |  | 0.0567 |  | 0.0618 |  |  |  |  | 0.0691 | 
14 | N175L | 0.0631 | 0.0629 | 0.0716 | 0.0629 | 0.0617 |  |  | 0.0582 | 0.0663 | 0.0518 | 0.0608 | 0.06 | 0.0697 | 0.0649 | 0.0515 |  |  | 0.0487 | 0.0492
15 | N175G | 0.0635 | 0.0498 | 0.0655 | 0.0642 |  | 0.102 |  |  |  | 0.0491 | 0.0493 |  | 0.0613 | 0.0596 | 0.0597 |  | 0.026 | 0.0725 | 
16 | G202R | 0.058 |  | 0.069 | 0.0648 |  | 0.0708 | 0.0538 |  | 0.0502 | 0.07 | 0.052 | 0.0722 | 0.0618 | 0.0638 | 0.0646 |  | 0.0618 | 0.0567 | 
17 | S201G | 0.0608 | 0.0561 | 0.0485 | 0.0679 | 0.0727 |  | 0.0588 |  | 0.0534 | 0.0583 | 0.0643 | 0.0692 | 0.0616 | 0.073 | 0.073 | 0.0381 | 0.0682 | 0.0636 | 
18 | Y179S | 0.0782 |  |  | 0.0677 |  |  | 0.0561 | 0.0548 | 0.0552 |  | 0.0584 | 0.0855 | 0.0252 | 0.0608 | 0.0403 | 0.0616 | 0.0628 | 0.0595 | 
19 | Y179A | 0.0414 |  | 0.059 | 0.0647 |  |  | 0.078 |  |  |  | 0.0639 | 0.0475 |  | 0.0568 | 0.0652 | 0.0535 |  | 0.0652 | 0.0384
20 | Y179R | 0.0759 | 0.0757 | 0.0359 |  |  | 0.0625 | 0.0569 |  | 0.0723 | 0.0641 | 0.0562 | 0.0624 |  |  | 0.047 | 0.0869 |  | 0.0608 | 0.0076
21 | E189N | 0.0585 | 0.0651 | 0.0593 | 0.0726 |  | 0.0884 | 0.0736 |  | 0.0625 | 0.0669 | 0.0637 | 0.0585 | 0.064 | 0.0904 | 0.0939 | 0.0549 |  | 0.0607 | 
22 | E189G | 0.0564 | 0.0665 | 0.0598 | 0.0616 | 0.038 |  | 0.0423 |  |  |  | 0.0528 | 0.0589 | 0.0679 | 0.0637 |  | 0.0622 | 0.0518 | 0.068 | 
23 | E189C | 0.0649 | 0.079 | 0.069 | 0.0701 |  | 0.0999 |  | 0.0628 |  | 0.0583 | 0.0601 |  |  |  | 0.051 | 0.0592 |  | 0.0593 | 0.0598
24 | E189T | 0.0553 | 0.0709 |  | 0.0696 | 0.0423 | 0.124 |  |  | 0.0671 |  | 0.0586 | 0.0533 |  | 0.0577 | 0.0932 | 0.041 |  | 0.051 | 
25 | W199P | 0.0595 | 0.0904 | 0.0582 | 0.0509 | 0.0675 | 0.0753 |  | 0.0541 | 0.0641 |  | 0.0858 | 0.0539 | 0.0687 | 0.0632 | 0.0687 | 0.0612 | 0.0613 | 0.056 | 
26 | W199F | 0.0656 | 0.0625 | 0.0576 | 0.0435 |  |  |  |  | 0.0581 | 0.0682 | 0.0573 | 0.0632 | 0.0539 | 0.0578 | 0.0561 |  | 0.0666 |  | 
